Laboratory results from PubChem BioAssay AID504333 (National Center for Advancing Translational Sciences (NCATS), 2011).
The campaign covered roughly 360,000 compounds. About 16,000 (4.4%) were called active. This list was built around the results that the source calls inconclusive (neither active nor inactive); the mix of calls is not that of the screen. Calls come from the whole dose curve; as a rule, active = well fitted inhibition curve with a large enough effect; inconclusive = small, poorly fitted or top-dose-only effect; inactive = no such curve, though single readings can be large or run the other way. Potencies of inconclusive entries are doubtful fits and often do not repeat.
% is set by controls: 0 for no effect and ±100 for the full control effect; potency is the fitted concentration of half-maximal effect; tags give direction and shape of the fitted curve.
Note: nearly all actives have a fitted effect of over 60% in size.

The molecules below were run against Bromodomain adjacent to zinc finger domain protein 2B (Homo sapiens) (UniProt Q9UIF8) (assay: qHTS Assay for Inhibitors of BAZ2B). Settings: AlphaScreen BAZ2B-H3K14Ac peptide displacement; activity change, negative = inhibition: at 114 µM (top of the series).
UniProt Q9UIF8, sequence (Q9UIF8 whole entry, looked up, the tested form may be a part): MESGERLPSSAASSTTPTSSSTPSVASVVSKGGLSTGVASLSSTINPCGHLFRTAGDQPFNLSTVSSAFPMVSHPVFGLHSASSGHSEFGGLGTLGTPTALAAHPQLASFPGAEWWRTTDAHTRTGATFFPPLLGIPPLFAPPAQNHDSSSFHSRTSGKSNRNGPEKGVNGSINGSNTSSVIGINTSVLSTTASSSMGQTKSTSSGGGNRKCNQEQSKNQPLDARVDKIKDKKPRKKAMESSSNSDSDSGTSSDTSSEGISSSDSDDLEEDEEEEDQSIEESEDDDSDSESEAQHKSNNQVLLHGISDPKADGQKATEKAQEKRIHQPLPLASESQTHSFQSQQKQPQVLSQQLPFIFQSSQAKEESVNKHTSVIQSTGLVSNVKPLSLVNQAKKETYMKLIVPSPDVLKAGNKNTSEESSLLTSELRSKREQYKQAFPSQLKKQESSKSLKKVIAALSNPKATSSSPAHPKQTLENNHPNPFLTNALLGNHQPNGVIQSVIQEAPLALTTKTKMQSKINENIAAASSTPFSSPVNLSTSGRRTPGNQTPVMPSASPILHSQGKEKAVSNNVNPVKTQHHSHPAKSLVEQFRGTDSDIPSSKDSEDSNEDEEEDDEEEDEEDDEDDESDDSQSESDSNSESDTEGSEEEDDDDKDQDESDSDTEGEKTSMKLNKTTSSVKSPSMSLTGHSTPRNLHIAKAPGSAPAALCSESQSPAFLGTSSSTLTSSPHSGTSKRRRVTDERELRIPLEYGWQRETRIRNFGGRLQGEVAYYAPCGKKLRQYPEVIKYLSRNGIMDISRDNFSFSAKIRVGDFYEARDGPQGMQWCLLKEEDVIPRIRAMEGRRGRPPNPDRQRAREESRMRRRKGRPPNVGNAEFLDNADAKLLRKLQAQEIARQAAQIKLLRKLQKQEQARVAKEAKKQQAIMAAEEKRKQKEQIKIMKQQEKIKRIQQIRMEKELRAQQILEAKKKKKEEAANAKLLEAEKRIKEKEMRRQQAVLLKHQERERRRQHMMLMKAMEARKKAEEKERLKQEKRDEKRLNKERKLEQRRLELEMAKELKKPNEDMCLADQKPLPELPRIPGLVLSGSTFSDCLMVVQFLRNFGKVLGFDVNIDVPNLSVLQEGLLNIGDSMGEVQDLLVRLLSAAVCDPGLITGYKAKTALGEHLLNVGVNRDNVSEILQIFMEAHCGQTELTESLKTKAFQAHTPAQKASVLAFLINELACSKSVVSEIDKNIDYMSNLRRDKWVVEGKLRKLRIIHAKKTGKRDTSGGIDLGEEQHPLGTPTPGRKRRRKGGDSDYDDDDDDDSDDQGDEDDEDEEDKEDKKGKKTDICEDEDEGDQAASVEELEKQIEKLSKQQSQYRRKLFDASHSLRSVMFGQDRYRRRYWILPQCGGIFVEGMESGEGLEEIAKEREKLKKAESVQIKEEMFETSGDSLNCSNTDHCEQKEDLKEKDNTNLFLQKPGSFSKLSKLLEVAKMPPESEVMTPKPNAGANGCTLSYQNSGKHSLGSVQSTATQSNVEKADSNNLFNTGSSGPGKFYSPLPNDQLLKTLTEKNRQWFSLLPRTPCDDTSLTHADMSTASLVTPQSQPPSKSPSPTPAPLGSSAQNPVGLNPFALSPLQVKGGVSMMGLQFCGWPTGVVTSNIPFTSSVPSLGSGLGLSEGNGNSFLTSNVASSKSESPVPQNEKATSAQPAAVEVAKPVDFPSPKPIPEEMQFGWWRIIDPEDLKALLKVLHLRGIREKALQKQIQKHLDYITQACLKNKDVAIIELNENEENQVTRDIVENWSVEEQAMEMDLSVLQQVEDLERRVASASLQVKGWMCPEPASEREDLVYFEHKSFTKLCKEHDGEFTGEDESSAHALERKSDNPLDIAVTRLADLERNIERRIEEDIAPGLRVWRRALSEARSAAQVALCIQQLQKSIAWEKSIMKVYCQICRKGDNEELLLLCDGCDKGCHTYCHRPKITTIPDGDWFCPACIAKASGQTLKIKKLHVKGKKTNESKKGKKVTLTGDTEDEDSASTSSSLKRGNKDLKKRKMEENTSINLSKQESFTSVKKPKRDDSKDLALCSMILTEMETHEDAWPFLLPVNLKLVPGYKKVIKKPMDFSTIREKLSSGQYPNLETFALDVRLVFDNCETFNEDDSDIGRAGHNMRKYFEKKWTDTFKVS
Summary of the method: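 AlphaScreen displacement: compounds (up to 110uM) incubated 30 min at room temperature with a preformed 50 nM BAZ2B/50 nM biotinylated H3K14Ac peptide complex in PBS pH 7.4 with Tween-20. Donor and acceptor beads at 10 ug/mL final added, 20 min light-protected before reading.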
With COc1ccc(-n2c(SCC(=O)Nc3ccccc3)nnc2-c2ccc(NS(=O)(=O)c3ccc(C)cc3)cc2)cc1 the Potency was inconclusive: 7.08 µM [inhibitor, single point]. For Cc1cc(C)c2c(CN3CCN(Cc4ccccc4)CC3)cc(=O)oc2c1C, the Potency was inconclusive: 79.4 µM [inhibitor, single point]. With CC(=O)c1c(C)nc(C)nc1NC(=O)C(C)C the “activity change, negative = inhibition” value was inactive: 35%. For O=S1(=O)c2ccccc2N=NN1Cc1ccc(Cl)cc1, the Potency was inconclusive: 89.1 µM [inhibitor, single point]. In the case of CCOC(=O)c1sc(N=NC2=C(O)CC(C)(C)CC2=O)c(C(=O)OCC)c1C, the “activity change, negative = inhibition” value is reported as inactive: -21.9%. In the case of Cn1nnnc1SCC1=C(C(=O)O)N2C(=O)[C@@H](NC(=O)[C@H](O)c3ccccc3)[C@H]2SC1, the Potency is reported as active: 50.1 µM. CCN1C(=O)[C@H]2[C@@H](c3ccc(-c4ccc(Cl)c(Cl)c4)cc3)N[C@@](CC(C)C)(C(=O)OC)[C@H]2C1=O was tested, and the Potency was inconclusive: 39.8 µM [inhibitor, single point]. In the case of Cc1nn(-c2ccc(Cl)cc2)c(N)c1C(O)(CSc1nccn1C)C(F)(F)F (configuration not stated), the Potency is reported as inconclusive: 39.8 µM [inhibitor, partial curve]. In the case of COc1ccc(/C=C2\SC(=Nc3ccccc3)NC2=O)cc1, the “activity change, negative = inhibition” value is reported as inactive: 0.5%. In the case of COc1ccc(N2CCN(c3ccc(S(=O)(=O)N(C(C)C)C(C)C)cn3)CC2)cc1, the “activity change, negative = inhibition” value is reported as inactive: -3.6%. Cc1[nH]nc2c1C(c1ccc(N(C)C)cc1)C1=C(CC(C)(C)CC1=O)N2 (configuration not stated) was tested, and the Potency was inconclusive: 50.1 µM [inhibitor, partial curve]. With COc1c(C)cccc1C(=O)Nc1ccc(OCC(=O)N2CCOCC2)cc1C the Potency was active: 56.2 µM. With Cc1ccc2[nH]c3nc(NN)nnc3c2c1 the Potency was active: 3.55 µM. With NC(=S)N/N=C/c1ccc(-c2ccc(Cl)c(Cl)c2)o1 the Potency was inconclusive: 56.2 µM [inhibitor, partial curve]. With O=C(NC1CC(=O)N(c2ccccc2)C1)c1cccs1 (configuration not stated) the “activity change, negative = inhibition” value was inactive: -1.42%. With COc1ccc2ccccc2c1CN1CCN(Cc2ccccc2)CC1 the Potency was inconclusive: 79.4 µM [inhibitor, single point]. In the case of C/C(=N\N(Cc1ccccc1)c1ccccc1)c1cccnc1, the Potency is reported as inconclusive: 28.2 µM [inhibitor, full curve]. O=C(NCCCN1CCOCC1)/C(=C/c1ccco1)NC(=O)c1ccccc1 was tested, and the “activity change, negative = inhibition” value was inactive: 3.52%. With Cc1ccc(C)c(OCCOCCN2CC(C)OC(C)C2)c1C (configuration not stated) the Potency was active: 25.1 µM. With CCCn1c(CCC(=O)O)ccc1-c1ccc(OC)cc1 the Potency was inconclusive: 50.1 µM [inhibitor, partial curve]. For COc1ccc(C=C2C=C(C(C)(C)C)C(=O)C(C(C)(C)C)=C2)cc1OC, the Potency was active: 25.1 µM. For Cc1ccc(CN(Cc2ccco2)C(=O)c2ccccc2Cl)o1, the Potency was inconclusive: 89.1 µM [inhibitor, single point]. With O=C(NCc1ccccc1)C12CN(Cc3ccccc3)CC1C(c1ccc([N+](=O)[O-])cc1)=NO2 (configuration not stated) the Potency was inconclusive: 39.8 µM [inhibitor, partial curve]. COc1ccc(NC(=O)C2CCCN2C(=O)Oc2ccccc2)cc1 (configuration not stated) was tested, and the “activity change, negative = inhibition” value was inactive: -23.6%. With COc1ccc(C(O)CNc2ccc(C)cc2)cc1 (configuration not stated) the Potency was inconclusive: 89.1 µM [inhibitor, single point]. With O=C(O)c1ccccc1C(=O)OCCCCOC(=O)c1ccccc1C(=O)O the Potency was inconclusive: 79.4 µM [inhibitor, single point]. In the case of CCOc1ccc2oc(C(=O)N(CCOC)c3c(N)n(CC(C)C)c(=O)[nH]c3=O)c(C)c2c1, the “activity change, negative = inhibition” value is reported as inactive: -0.784%. CN(C)S(=O)(=O)N1C(=O)c2ccccc2C1=O was tested, and the “activity change, negative = inhibition” value was inactive: -19.3%. In the case of COc1cc(/C=C/c2nc3ccccc3c(=O)[nH]2)cc(Br)c1O, the Potency is reported as inconclusive: 89.1 µM [inhibitor, single point]. With Cc1ccc(O)c(CNc2ccc(S(=O)(=O)Nc3nccs3)cc2)c1 the Potency was inconclusive: 39.8 µM [inhibitor, partial curve]. For O=C(C1CCCN(S(=O)(=O)c2cccs2)C1)N1CCN(c2ccccc2F)CC1 (configuration not stated), the “activity change, negative = inhibition” value was inactive: -15.3%. With Cc1[nH]n(-c2ccccc2)c(=O)c1/C=N/NC(=O)c1cccc(F)c1 the Potency was active: 79.4 µM. In the case of Cc1nc2sc(C)c(C)n2c(=O)c1S(=O)(=O)NCCc1ccc(Cl)cc1, the Potency is reported as inconclusive: 89.1 µM [inhibitor, single point]. For COc1cccc(C2C(C#N)=C(N)SC(c3ccccc3)C2[N+](=O)[O-])c1 (configuration not stated), the Potency was active: 50.1 µM. For O=C(CCNS(=O)(=O)c1cccc2nonc12)N1CCN(c2cccc(Cl)c2)CC1, the Potency was inconclusive: 79.4 µM [inhibitor, single point]. With O=C(CCc1nnc2ccc(NCc3ccco3)nn12)Nc1cc(F)ccc1F the Potency was inconclusive: 25.1 µM [inhibitor, single point]. For Cc1cccc(-c2oc3ccc(-c4ccc5c(c4)OCO5)cc3c2/C=C/c2ccc(N)cc2)c1, the “activity change, negative = inhibition” value was inactive: -3.52%. For CCCCNc1nc(=S)[nH]c2cc(OC)c(OC)cc12, the Potency was inconclusive: 89.1 µM [inhibitor, single point]. For Nn1c(C2COc3ccccc3O2)n[nH]c1=S (configuration not stated), the Potency was inconclusive: 79.4 µM [inhibitor, single point]. O=[N+]([O-])c1ccc(O)c(/C=N/Nc2ncnc3c2cnn3-c2ccccc2)c1 was tested, and the Potency was inconclusive: 44.7 µM [inhibitor, partial curve, poor fit]. In the case of O=C(Nc1ccc(Nc2ccccc2)cc1)c1ccccc1F, the Potency is reported as inconclusive: 44.7 µM [inhibitor, partial curve]. For Cc1nn(C)c(C)c1CN(C)C(=O)CCCC(=O)O, the “activity change, negative = inhibition” value was inactive: 6.17%. For C=CCN=c1scc(-c2ccco2)n1/N=C/c1ccc(O)c(O)c1O, the Potency was active: 12.6 µM. For CCc1cc2cc(C)cc(C)c2[nH]c1=S, the Potency was inconclusive: 89.1 µM [inhibitor, single point]. For O=C(/C=C\Nc1ccc2c(c1)OCO2)c1ccc(Cl)s1, the Potency was inconclusive: 79.4 µM [inhibitor, single point]. O=C(NCc1ccc2c(c1)OCO2)c1ccc(N2CCCCCC2)c([N+](=O)[O-])c1 was tested, and the Potency was inconclusive: 7.94 µM [inhibitor, full curve]. Cc1cc(C(=O)N/N=C/c2ccc(O)c([N+](=O)[O-])c2)c(C)n1-c1ccc(F)cc1 was tested, and the Potency was active: 50.1 µM. CCC(C)(C)n1nnnc1C(C(C)C)N(Cc1cccnc1)Cc1ccco1 (configuration not stated) was tested, and the Potency was inconclusive: 79.4 µM [inhibitor, single point]. For CCOC(=O)c1ccccc1NC(=O)COC(=O)c1ccccc1C(=O)N(C)c1ccccc1, the “activity change, negative = inhibition” value was inactive: 1.8%. Cc1cccc(NC(=O)c2cc(S(=O)(=O)N(C)c3ccc(F)cc3)ccc2Cl)n1 was tested, and the “activity change, negative = inhibition” value was inactive: -12%. For CC1(C)Cc2c(c(N3CCCC3)nc3sc4c(N5CCN(CCO)CC5)ncnc4c23)CO1, the Potency was inconclusive: 70.8 µM [inhibitor, single point]. With c1ccc(COc2nsnc2N2CCOCC2)cc1 the Potency was inconclusive: 44.7 µM [inhibitor, partial curve]. O=C(C1=C(O)C(=O)N(c2ncccn2)C1c1ccc(Cl)c(Cl)c1)c1ccco1 (configuration not stated) was tested, and the Potency was active: 79.4 µM. In the case of CCN(CC(=O)Nc1ccc(NC(C)=O)cc1)C(=O)c1cccc(-n2cccc2)c1, the Potency is reported as active: 50.1 µM. For Cc1ccc(C(=O)NNC(=O)CSc2nnc3c(n2)[nH]c2ccc(F)cc23)cc1, the Potency was inconclusive: 89.1 µM [inhibitor, single point]. COc1ccc(-c2sc3cc4c(cc3c2C#CC2(N)CCCCC2)OCO4)cc1 was tested, and the Potency was active: 10 µM. For O=C(/C=C/c1ccc(Br)cc1)c1ccc(NC(=O)c2ccco2)cc1, the Potency was inconclusive: 89.1 µM [inhibitor, single point]. COc1cc([N+](=O)[O-])cc(/C=N/NC(=O)C(C)Nc2cccc3ccccc23)c1O (configuration not stated) was tested, and the Potency was active: 44.7 µM. For N#CC1=C(N)SC2(CCCCC2)SC1c1ccccc1 (configuration not stated), the “activity change, negative = inhibition” value was inactive: -34%. COc1ccc(OC)c(/C=N/NC(=O)CN2CCSCC2)c1 was tested, and the Potency was active: 56.2 µM. CCN(CC)CCNC(=O)c1cc(S(C)(=O)=O)ccc1OC was tested, and the Potency was inconclusive: 56.2 µM [inhibitor, partial curve, poor fit]. In the case of Cc1ccc(C(=O)Nc2nc(-c3cccnc3)cs2)o1, the Potency is reported as inconclusive: 79.4 µM [inhibitor, single point]. With COc1cccc(NS(=O)(=O)c2ccc3[nH]cc(C(=O)NCCCOC(C)C)c(=O)c3c2)c1 the Potency was inconclusive: 39.8 µM [inhibitor, partial curve]. For c1ccc(N/N=C(\Cc2nc3ccccc3[nH]2)c2ccccc2)cc1, the Potency was inconclusive: 44.7 µM [inhibitor, partial curve]. In the case of Clc1ccc(OCc2nn3c(-c4ccco4)nnc3s2)c(Cl)c1, the Potency is reported as active: 56.2 µM. With COC(CNC(=O)c1ccc(Cn2c(=S)[nH]c3cc4c(cc3c2=O)OCO4)cc1)OC the Potency was inconclusive: 3.98 µM [inhibitor, single point]. For O=C(CN1C(=O)NC2(CCc3ccccc32)C1=O)c1ccc(F)c(F)c1 (configuration not stated), the “activity change, negative = inhibition” value was inactive: 41.4%. In the case of Brc1csc(CN2CCc3nc(Nc4ccccc4)ncc3C2)c1, the Potency is reported as inconclusive: 79.4 µM [inhibitor, partial curve]. O=C(Nc1ccc2nsnc2c1)N1CCCCCC1 was tested, and the “activity change, negative = inhibition” value was inactive: -0.0397%. In the case of Cn1c(SCC(=O)c2ccc(O)c(O)c2)nnc1-c1ccccc1, the Potency is reported as inconclusive: 63.1 µM [inhibitor, partial curve, poor fit]. In the case of COc1cc(OC)cc(C(=O)N2CCC3(CC2)NCCc2[nH]cnc23)c1, the Potency is reported as inconclusive: 89.1 µM [inhibitor, single point]. Cc1cc(C(=O)COC(=O)c2ccc[nH]c2=O)c(C)n1-c1ccccc1F was tested, and the Potency was inconclusive: 79.4 µM [inhibitor, single point].
